Experimental data as given in PMC4522686.
No constants are given. Whether binding was seen depends on the method and setting. For some of these results: Binding seen in cells or lysates may run through a third protein. Some binding calls cover weakened binding; strength is not graded here. For some of these results: Where a sequence is shown, tags or fusion partners need not be part of it.

The chains behind the UniProt entries cited, without tags or fusion partners. Where a name states a change or a piece, a line headed by the entry shows the natural chain unless it says otherwise. Residues count along the entry.
UniProt Q9BSR8: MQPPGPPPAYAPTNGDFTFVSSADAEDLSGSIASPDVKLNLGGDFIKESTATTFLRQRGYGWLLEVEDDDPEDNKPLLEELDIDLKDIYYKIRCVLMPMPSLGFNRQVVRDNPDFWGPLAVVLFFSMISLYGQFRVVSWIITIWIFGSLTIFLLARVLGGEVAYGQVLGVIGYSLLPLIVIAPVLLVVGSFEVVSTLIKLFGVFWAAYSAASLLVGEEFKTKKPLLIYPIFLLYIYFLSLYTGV
FLAG-YIPF4 truncation mutant 1–223: residues 1-223 of Q9BSR8
FLAG-YIPF4 truncation mutant 1–195: residues 1-195 of Q9BSR8
FLAG-YIPF4 truncation mutant 1–166: residues 1-166 of Q9BSR8
FLAG-YIPF4 truncation mutant 1–117: residues 1-117 of Q9BSR8
UniProt P06460: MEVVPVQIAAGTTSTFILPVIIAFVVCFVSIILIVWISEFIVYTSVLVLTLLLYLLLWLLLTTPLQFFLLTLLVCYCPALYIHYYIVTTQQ
UniProt P03126: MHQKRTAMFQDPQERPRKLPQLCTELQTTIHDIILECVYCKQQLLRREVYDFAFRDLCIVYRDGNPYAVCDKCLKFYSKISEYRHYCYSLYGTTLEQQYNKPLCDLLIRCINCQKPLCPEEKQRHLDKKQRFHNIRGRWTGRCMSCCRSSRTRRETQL
UniProt P03129: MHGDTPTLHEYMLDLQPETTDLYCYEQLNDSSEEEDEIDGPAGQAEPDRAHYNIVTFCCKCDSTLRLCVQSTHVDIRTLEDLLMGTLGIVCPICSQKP

Legend:
[1] = molecular target: GFP-16E5 fusion protein (HPV16 E5, 1–83, full-length) (Human papillomavirus type 16 (HPV16)) (UniProt P06927); test: co-IP; HEK293T lysates; precipitated with a GFP antibody coupled to beads (dynabeads protein G); blots for GFP and FLAG; binding buffer 50 mM Tris/Cl pH 7.4, 100 mM KCl, 0.2% NP40; 1 h at RT
[2] = molecular target: GFP-16E5 fusion protein (HPV16 E5, 1–83, full-length) (Human papillomavirus type 16 (HPV16)) (UniProt P06927); test: co-IP; lysates of co-transfected HEK293T cells; GFP-TRAP precipitation; precipitates probed for GFP fusions and for the FLAG epitope
[3] = molecular target: GFP-16E5 truncation mutant 1–54 (Human papillomavirus type 16 (HPV16)) (UniProt P06927); test: as above
[4] = molecular target: FLAG-YIPF4 (wild-type, 1–244) (human) (UniProt Q9BSR8); test: co-IP; HEK293T lysates, proteins co-expressed; FLAG-YIPF4 or its truncations as bait, precipitated with FLAG antibody/FLAG beads; blots for GFP and FLAG; binding buffer 50 mM Tris/Cl pH 7.4, 100 mM KCl, 0.2% NP40; 1 h at RT
[5] = molecular target: FLAG-YIPF4 (wild-type, 1–244) (human) (UniProt Q9BSR8); test: co-IP; C33A lysates; precipitated with a YIPF4 antibody (dynabeads protein G); binding buffer 50 mM Tris/Cl pH 7.4, 100 mM KCl, 0.2% NP40; 1 h at RT
[6] = molecular target: endogenous YIPF4 (human (endogenous in C33A)) (UniProt Q9BSR8); test: as above
[7] = molecular target: FLAG-YIPF4 truncation mutant 1–117 (human) (UniProt Q9BSR8); test: co-IP; HEK293T lysates, proteins co-expressed; FLAG-YIPF4 or its truncations as bait, precipitated with FLAG antibody/FLAG beads; blots for GFP and FLAG; binding buffer 50 mM Tris/Cl pH 7.4, 100 mM KCl, 0.2% NP40; 1 h at RT
[8] = molecular target: FLAG-YIPF4 truncation mutant 1–138 (human) (UniProt Q9BSR8); test: as above
[9] = molecular target: FLAG-YIPF4 truncation mutant 1–166 (human) (UniProt Q9BSR8); test: as above
[10] = molecular target: FLAG-YIPF4 truncation mutant 1–195 (human) (UniProt Q9BSR8); test: as above
[11] = molecular target: FLAG-YIPF4 truncation mutant 1–223 (human) (UniProt Q9BSR8); test: as above
[12] = molecular target: 16E5 bait, fused to the C-terminus of the DNA binding domain of GAL4 (Human papillomavirus type 16 (HPV16)) (UniProt P06927); test: two-hybrid; semi-automated screen; 16E5 bait on the GAL4 DNA binding domain (pGBKT7, AH109) against HeLa and human testis epithelial cell prey libraries (pGADT7, Y187); SD media lacking leucine, tryptophan and histidine, with 3-AT; data not shown
[13] = molecular target: FLAG-YIPF4 (wild-type, 1–244) (human) (UniProt Q9BSR8); test: co-IP; HEK293T lysates, proteins co-expressed; FLAG-YIPF4 or its truncations as bait, precipitated with FLAG antibody/FLAG beads; blots for GFP and FLAG; binding buffer 50 mM Tris/Cl pH 7.4, 100 mM KCl, 0.2% NP40; 1 h at RT; remark: listed apart in the source

## FLAG-YIPF4 (wild-type, 1–244) (from UniProt Q9BSR8 1-244)
[1]
  binding: binds

## FLAG-YIPF4 truncation mutant 1–138 (from UniProt Q9BSR8 1-138) (domain or fragment)
[2]
  binding: binds
[3]
  binding: binds

## FLAG-optineurin (from UniProt Q96CV9 1-577)
[1]
  binding: no binding

## GFP fusion of HPV6b E5a (6bE5a) (from UniProt P06460 1-91)
[4]
  binding: binds

## GFP fusion protein of 16E6 (from UniProt P03126 1-158)
[4]
  binding: no binding

## GFP fusion protein of 16E7 (from UniProt P03129 1-98)
[4]
  binding: no binding

## GFP-16E5 fusion protein (HPV16 E5, 1–83, full-length) (from UniProt P06927 1-83)
[5]
  binding: binds
[6]
  binding: binds
[4]
  binding: binds
[7]
  binding: no binding
[8]
  binding: binds weakly
[9]
  binding: binds
[10]
  binding: binds
[11]
  binding: binds

## GFP-16E5 truncation mutant 1–54 (from UniProt P06927 1-54) (domain or fragment)
[4]
  binding: binds

## GFP-16E5 truncation mutant 1–79 (from UniProt P06927 1-79) (domain or fragment)
[4]
  binding: binds

## YIPF4 prey, fused to the GAL4 activation domain (from UniProt Q9BSR8 1-244)
[12]
  binding: binds

## MPNLWFLLFLGLVAAMQLLLLLFLLLFFLVYWDHFECSCTGLPF (peptide, UniProt P0CK45 1-44) [GFP fusion of BPV1 E5]
[13]
  binding: binds
